# Laboratory results as given in ChEMBL document CHEMBL1201862, “PubChem BioAssay data set” (2004).
# Values joined by “and” are separate entries in the source; they are usually repeats but may differ in a detail not shown here. Equal values may be shown once.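 Interpolation was linear, between the two tested concentrations surrounding the appropriate level; five concentrations were tested over 48 hours in 96-well plates. Abbreviation: GI50, concentration required for 50% inhibition of growth.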 Active and inactive are the calls of the source. Rule as the data show it: active = GI50 up to about 1.1 µM and inactive = higher.
# System: NCI-H322M
# Assay: growth of human tumour cells (NCI), 48 h
row,Compound,GI50
1,C=CC(C)(C)[C@@]12CC3C(=O)N[C@@H](Cc4ccccc4)C(=O)N3[C@@H]1N(C(C)=O)c1ccccc12 (some centres undefined),inactive: > 100 µM
2,CC1(c2nc3cc(Cl)c(Cl)cc3[nH]2)CCC(CO)C(C)(C)O1 (centres undefined),inactive: 51.4 µM
3,COc1cc2c(cc1O)C(c1cc(O)c(O)c(OC)c1)C(O)(C(=O)O)C(CO)C2O (centres undefined),inactive: > 100 µM
4,c1ccc(-c2sc(-c3ccccc3)c3c2C(c2ccccc2)c2c(-c4ccccc4)sc(-c4ccccc4)c2C3c2ccccc2)cc1 (centres undefined),inactive: > 100 µM
5,Cc1ccc(/N=C2\C(=O)C3=C(OC(C)(C)CC3)c3ccccc32)cc1,inactive: 1.61 µM
6,O=c1cc(/C=C/c2ccc(O)c(O)c2)cc(/C=C/c2ccc(O)c(O)c2)o1,inactive: 11 µM
7,CCOC(=O)C(=O)/C=C(\C)Nc1c(NC2OCC(OC(C)=O)C(OC(C)=O)C2OC(C)=O)nc(SC)[nH]c1=O (centres undefined),inactive: > 100 µM
8,CCCCCCCC/C=C1\CCC(CN2CCOCC2)C1=O (centres undefined),inactive: 16.4 µM
9,CSc1c(C#N)c(O)n(-c2ccc(Cl)cc2)c(=O)c1C#N,inactive: 46.3 µM
10,Cc1cc2occ(S(=O)(=O)NC(=O)Nc3ccc(Cl)cc3)c(=O)c2c(=O)o1,inactive: > 100 µM
11,COc1cc(O)c2c(c1)C(=O)c1cc3c(c(O)c1C2=O)C(OC1OC(C)C(O)C(O)C1OC)C(OC)C(C)(O)C3=O (centres undefined),inactive: 2.4 µM
12,CC1=NN(c2ccccc2)C(=O)/C1=C\c1c(C)[nH]n(-c2ccccc2)c1=O,inactive: > 100 µM
13,C[C@H]1O[C@@H](c2c(O)ccc3ccccc23)C[C@@H](N(C)C)C1O (some centres undefined),inactive: > 100 µM
14,Cc1nn(C(=O)CC(=O)Nc2ccccc2Cl)c(C)c1/N=N/c1ccccc1Cl,inactive: > 100 µM
15,COc1cc([C@@H]2c3cc4c(cc3[C@@H](NC(=O)c3cccc(F)c3)C3COC(=O)[C@@H]32)OCO4)cc(OC)c1O (some centres undefined),inactive: 7.91 µM
16,CN(C)/C=N/c1nc2c(ncn2C2OC(CO)C(O)C2O)c(=O)[nH]1 (centres undefined),inactive: > 100 µM
17,N#CC1=C(O)NC(O)=C(C#N)C1c1c(Cl)cccc1Cl,inactive: 28.4 µM
18,CC1CC[C@@]2(OC1)OC1C[C@H]3[C@@H]4CC=C5C[C@@H](OC6OC(CO)C(OC7OC(CO)C(O)C(O)C7O)C(O)C6OC6OC(C)C(O)C(O)C6O)CC[C@]5(C)[C@H]4CC[C@]3(C)C1[C@@H]2C (some centres undefined),active: 0.867 µM
19,Clc1cccc(/N=C/C=C/Nc2cccc(Cl)c2)c1,inactive: > 10 µM
20,CC1=C2C3=C(C)C(=O)C(C)(C)CC[C@@]3(C)[C@]2(C)CCC(C)(C)C1=O,inactive: > 100 µM
21,COc1cccc(/C=C2\S/C(=N/Nc3nc(C)c(C)s3)NC2=O)c1O,inactive: > 100 µM
22,O=C(CCc1ccc(O)c(O)c1)NCCc1ccccc1,inactive: > 100 µM

row,Compound,GI50
1,Cc1c(Cl)cccc1NC(=O)C(=O)C1C(=O)NC(=O)NC1=O,inactive: > 100 µM
2,O=C(/C=N/c1ccccc1S)c1ccco1,inactive: 4.67 µM
3,O=C1OC(Cc2ccccc2)(N2CCCC2=O)C1c1ccccc1 (centres undefined),inactive: > 100 µM
4,CC(=O)NCCc1c[nH]c2ccc(Cl)cc12,inactive: > 100 µM
5,Cc1nc2c3c(ccc2nc1O)C(=O)c1ccccc1C3=O,inactive: 30.5 µM
6,C[C@@H](CC(O)C(O)C(C)(C)O)C1CCC23CC12CCC1[C@@]2(C)CCC(=O)C(C)(C)C2CC(OC2OC(CO)C(O)C(O)C2O)[C@]13C (some centres undefined),inactive: > 10 µM
7,N#C/C(C(=O)NCc1ccccc1)=C(/N)N1CCCC1,inactive: > 100 µM
8,CCCCc1c2c(nc3c1CCCC3=O)C(=O)CCC2,inactive: > 100 µM
9,COC(=O)C1(O)C(c2ccccc2)=NC2(C)CCCC21 (centres undefined),inactive: > 100 µM
10,O=C(O)CCc1ccc(-c2ccccc2)[nH]1,inactive: > 100 µM
11,O=C(CCc1n[nH]c(=S)o1)Nc1ccccc1C(F)(F)F,inactive: > 100 µM
12,Cn1c(N(CCO)CCO)cnc1[N+](=O)[O-],inactive: > 100 µM
13,O=C1NC(c2ccc3ccccc3c2)Nc2ccccc21 (centres undefined),inactive: 49.9 µM
14,COc1c(CC(C)=O)ccc2c1C(=O)c1ccc(C=O)c(OC(C)=O)c1C2=O,inactive: 18.3 µM
15,COc1ccc(-c2nc(O)c3ccccc3n2)c(OC)c1,inactive: > 100 µM
16,CN(C)C(=S)/N=c1\ss/c(=N\C(=S)N(C)C)n1-c1ccc(Cl)cc1,inactive: > 100 µM
17,CC1=C(c2cc(C(=O)Nc3ccc(Cl)cc3)nc(S)n2)Sc2ccccc2N1,inactive: > 100 µM
18,COc1cc(/C=C/c2nc(NC(=S)Nc3ccccc3)nnc2C)cc(OC)c1OC,inactive: 30.8 µM
19,C#CCN(Cc1ccc2nc(-c3ccccc3)c(Cl)nc2c1)c1cc(OC)c(OC)c(OC)c1,inactive: > 100 µM
20,Clc1ccc(-c2nn3c(COc4cccc(OCc5nnc6sc(-c7ccc(Cl)cc7)nn56)c4)nnc3s2)cc1,inactive: 37 µM
21,COc1ccc2nc3cccc([N+](=O)[O-])c3c(NCCO)c2c1,active: 0.0276 µM
22,CC(=O)OC(/C=C/c1ccccc1)P1(=O)N(CC(C)(C)C)[C@@H]2CCCC[C@H]2N1CC(C)(C)C (some centres undefined),inactive: 11.1 µM and inactive: 10.9 µM
